The labels stand for the following.
T1: C-terminal FLAG-tagged human threonyl-tRNA synthetase-like protein (hThrRS-L-FLAG) (human) (UniProt A2RTX5)
T1 sequence: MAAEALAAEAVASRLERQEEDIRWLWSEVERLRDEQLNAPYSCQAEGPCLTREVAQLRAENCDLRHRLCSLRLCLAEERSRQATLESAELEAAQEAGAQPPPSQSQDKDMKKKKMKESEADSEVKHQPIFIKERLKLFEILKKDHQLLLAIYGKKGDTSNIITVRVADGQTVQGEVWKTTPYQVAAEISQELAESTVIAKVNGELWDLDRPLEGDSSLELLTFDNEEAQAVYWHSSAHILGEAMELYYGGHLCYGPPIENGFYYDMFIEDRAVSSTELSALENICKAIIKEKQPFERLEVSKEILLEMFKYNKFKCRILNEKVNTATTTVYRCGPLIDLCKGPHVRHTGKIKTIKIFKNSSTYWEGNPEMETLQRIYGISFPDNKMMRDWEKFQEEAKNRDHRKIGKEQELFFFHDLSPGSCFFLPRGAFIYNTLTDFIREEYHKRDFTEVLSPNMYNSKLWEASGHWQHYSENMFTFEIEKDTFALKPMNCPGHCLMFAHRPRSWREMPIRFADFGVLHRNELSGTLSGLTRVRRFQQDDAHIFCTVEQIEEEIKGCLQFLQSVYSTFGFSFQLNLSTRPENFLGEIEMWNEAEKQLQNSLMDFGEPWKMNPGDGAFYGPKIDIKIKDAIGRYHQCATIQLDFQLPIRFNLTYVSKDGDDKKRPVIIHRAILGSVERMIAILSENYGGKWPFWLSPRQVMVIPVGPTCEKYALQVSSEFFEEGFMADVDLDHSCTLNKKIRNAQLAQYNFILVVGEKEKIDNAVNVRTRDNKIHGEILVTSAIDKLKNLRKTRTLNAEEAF

T2: hThrRS-L-S453D with a C-terminal FLAG tag (human) (UniProt A2RTX5)
T2 sequence: T1 sequence with S453D

T3: hThrRS-L-Y457D with a C-terminal FLAG tag (human) (UniProt A2RTX5)
T3 sequence: T1 sequence with Y457D

B1: native p43 (AIMP1), endogenous in human cells (protein, UniProt Q12904-2 1-336)
chain: MLPAVAVSEPVVLRFMIFCRLLAKMANNDAVLKRLEQKGAEADQIIEYLKQQVSLLKEKAILQATLREEKKLRVENAKLKKEIEELKQELIQAEIQNGVKQIPFPSGTPLHANSMVSENVIQSTAVTTVSSGTKEQIKGGTGDEKKAKEKIEKKGEKKEKKQQSIAGSADSKPIDVSRLDLRIGCIITARKHPDADSLYVEEVDVGEIAPRTVVSGLVNHVPLEQMQNRMVILLCNLKPAKMRGVLSQAMVMCASSPEKIEILAPPNGSVPGDRITFDAFPGEPDKELNPKKKIWEQIQPDLHTNDECVATYKGVPFEVKGKGVCRAQTMSNSGIK
B2: native hThrRS, endogenous in HEK293T (enzyme, UniProt P26639 1-723)
chain: MFEEKASSPSGKMGGEEKPIGAGEEKQKEGGKKKNKEGSGDGGRAELNPWPEYIYTRLEMYNILKAEHDSILAEKAEKDSKPIKVTLPDGKQVDAESWKTTPYQIACGISQGLADNTVIAKVNNVVWDLDRPLEEDCTLELLKFEDEEAQAVYWHSSAHIMGEAMERVYGGCLCYGPPIENGFYYDMYLEEGGVSSNDFSSLEALCKKIIKEKQAFERLEVKKETLLAMFKYNKFKCRILNEKVNTPTTTVYRCGPLIDLCRGPHVRHTGKIKALKIHKNSSTYWEGKADMETLQRIYGISFPDPKMLKEWEKFQEEAKNRDHRKIGRDQELYFFHELSPGSCFFLPKGAYIYNALIEFIRSEYRKRGFQEVVTPNIFNSRLWMTSGHWQHYSENMFSFEVEKELFALKPMNCPGHCLMFDHRPRSWRELPLRLADFGVLHRNELSGALTGLTRVRRFQQDDAHIFCAMEQIEDEIKGCLDFLRTVYSVFGFSFKLNLSTRPEKFLGDIEVWDQAEKQLENSLNEFGEKWELNSGDGAFYGPKIDIQIKDAIGRYHQCATIQLDFQLPIRFNLTYVSHDGDDKKRPVIVHRAILGSVERMIAILTENYGGKWPFWLSPRQVMVVPVGPTCDEYAQKVRQQFHDAKFMADIDLDPGCTLNKKIRNAQLAQYNFILVVGEKEKISGTVNIRTRDNKVHGERTISETIERLQQLKEFRSKQAEEEF
B3: ArgRS, endogenous in human cells (enzyme, UniProt P54136 1-660)
chain: MDVLVSECSARLLQQEEEIKSLTAEIDRLKNCGCLGASPNLEQLQEENLKLKYRLNILRKSLQAERNKPTKNMINIISRLQEVFGHAIKAAYPDLENPPLLVTPSQQAKFGDYQCNSAMGISQMLKTKEQKVNPREIAENITKHLPDNECIEKVEIAGPGFINVHLRKDFVSEQLTSLLVNGVQLPALGENKKVIVDFSSPNIAKEMHVGHLRSTIIGESISRLFEFAGYDVLRLNHVGDWGTQFGMLIAHLQDKFPDYLTVSPPIGDLQVFYKESKKRFDTEEEFKKRAYQCVVLLQGKNPDITKAWKLICDVSRQELNKIYDALDVSLIERGESFYQDRMNDIVKEFEDRGFVQVDDGRKIVFVPGCSIPLTIVKSDGGYTYDTSDLAAIKQRLFEEKADMIIYVVDNGQSVHFQTIFAAAQMIGWYDPKVTRVFHAGFGVVLGEDKKKFKTRSGETVRLMDLLGEGLKRSMDKLKEKERDKVLTAEELNAAQTSVAYGCIKYADLSHNRLNDYIFSFDKMLDDRGNTAAYLLYAFTRIRSIARLANIDEEMLQKAARETKILLDHEKEWKLGRCILRFPEILQKILDDLFLHTLCDYIYELATAFTEFYDSCYCVEKDRQTGKILKVNMWRMLLCEAVAAVMAKGFDILGIKPVQRM

Numbering of substitutions follows the chain as printed. No constants are given. Whether binding was seen depends on the method and setting. Binding seen in cells or lysates may run through a third protein. Some entries that bind do so weakly or less than the wild type. Where a sequence is shown, tags or fusion partners need not be part of it.

The target of the first assay is T1, C-terminal FLAG-tagged human threonyl-tRNA synthetase-like protein (hThrRS-L-FLAG) (human). Description: co-IP; FLAG-tagged hThrRS-L or mutant overexpressed in HEK293T; IP with anti-FLAG, Dynabeads protein G, 4°C; endogenous partners detected by western blotting. (In western blotting, separated proteins are transferred to a membrane and probed.)
Turning to B1, the binding result is “binds”.

For the molecule B2, the binding entry was “binds”.

B3: the binding entry is on record as “binds”.

For another assay, the target named is T2, hThrRS-L-S453D with a C-terminal FLAG tag (human). The assay is described as above.
Take B1: the binding entry is on record as “binds”.

Take B2: the binding result was “binds”.

Regarding B3, the binding entry is reported as “binds”.

The target in the next assay is T3, hThrRS-L-Y457D with a C-terminal FLAG tag (human). The description is as above.
With B1, the binding entry is “binds”.

Turning to B2, the binding result is recorded as “binds”.

As for B3, the binding result is “binds”.

Source of the values: publication PMC6794377.
